Not every entry of the source has a single result; some have several. They are shown here; other results are not. There may be further records. Values that stand side by side seem to repeat one measurement (runs, samples, wells or individuals).
Biological target: FHCS-1 (RSV strain A2) (UniProt P03420)
Assay: ELISA; F coated 156.3 ng/ml; stored -80° C.

Substance: Synagis® (antibody)
- OD value: 0.027 OD and 0.008 OD [lines of one column]

— patent publication US20260117202A1
